The other results are listed elsewhere or left out. Single values are uncertain, as repeats are few or missing.
Tested on: G361
Test: cell count relative to DMSO control; melanoma cells; higher = more viable cells
Conditions: library dose: standard library concentration; 72 h; first compound 2 µM
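Further: cells treated in 1,536-well plates, then fixed and DAPI-stained, with nuclei counted from automated high-throughput microscope images.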

SMILES | cell count [%]
C[C@@H](N)c1ccc(C(=O)Nc2ccnc3[nH]ccc23)cc1 + CO[C@@H]1[C@H](N(C)C(=O)c2ccccc2)C[C@H]2O[C@]1(C)n1c3ccccc3c3c4c(c5c6ccccc6n2c5c31)C(=O)NC4 [Midostaurin] (partner dose 0.4 µM) | 42.1
Cn1sc(=O)n(Cc2ccccc2)c1=O + Nc1cccc2c1CN(C1CCC(=O)NC1=O)C2=O [lenalidomide] (partner dose 5 µM) | 107
Cn1sc(=O)n(Cc2ccccc2)c1=O + COc1cc2c(Oc3ccc4[nH]c(C)cc4c3F)ncnc2cc1OCCCN1CCCC1 [cediranib] (partner dose 2 µM) | 81.2
C[C@@H](N)c1ccc(C(=O)Nc2ccnc3[nH]ccc23)cc1 + Cn1sc(=O)n(Cc2ccccc2)c1=O [TDZD-8] (partner dose 2 µM) | 84.5
C[C@@H](N)c1ccc(C(=O)Nc2ccnc3[nH]ccc23)cc1 + CC(C)C[C@H](NC(=O)[C@H](Cc1ccccc1)NC(=O)c1cnccn1)B(O)O [Bortezomib] (partner dose 0.005 µM) | 1.16
CCCCCCCCCCCCCCCCCCOP(=O)([O-])OC1CC[N+](C)(C)CC1 [Perifosine] + C#Cc1cccc(Nc2ncnc3cc(OCCOC)c(OCCOC)cc23)c1 [erlotinib] (partner dose 4 µM) | 64.5
Cn1sc(=O)n(Cc2ccccc2)c1=O + CNC(=O)c1cc(Oc2ccc(NC(=O)Nc3ccc(Cl)c(C(F)(F)F)c3)cc2)ccn1 [sorafenib] (partner dose 2 µM) | 108
CCCCCCCCCCCCCCCCCCOP(=O)([O-])OC1CC[N+](C)(C)CC1 [Perifosine] + C[C@]1(c2nc3c(C(N)=O)cccc3[nH]2)CCCN1 [Veliparib] (partner dose 7 µM) | 103
Cn1sc(=O)n(Cc2ccccc2)c1=O + Cc1cc(Nc2cc(N3CCN(C)CC3)nc(/C=C/c3ccccc3)n2)n[nH]1 [ENMD2076] (partner dose 0.2 µM) | 101
CCCCCCCCCCCCCCCCCCOP(=O)([O-])OC1CC[N+](C)(C)CC1 [Perifosine] + COc1ccc(C2=N[C@@H](c3ccc(Cl)cc3)[C@@H](c3ccc(Cl)cc3)N2C(=O)N2CCNC(=O)C2)c(OC(C)C)c1 [Nutlin-3] (partner dose 0.5 µM) | 74.8
Cn1sc(=O)n(Cc2ccccc2)c1=O + Cn1c(=O)n(-c2ccc(C(C)(C)C#N)cc2)c2c3cc(-c4cnc5ccccc5c4)ccc3ncc21 [NVP-BEZ235] (partner dose 0.02 µM) | 60.9
C[C@@H](N)c1ccc(C(=O)Nc2ccnc3[nH]ccc23)cc1 + Nc1nc(F)nc2c1ncn2[C@@H]1O[C@H](CO)[C@@H](O)[C@@H]1O [fludarabine] (partner dose 1 µM) | 81
C[C@@H](N)c1ccc(C(=O)Nc2ccnc3[nH]ccc23)cc1 + O=C(Nc1cccc(Cl)c1)Nc1ncc(CCNc2ncnc3ccsc23)s1 [SNS314] (partner dose 0.004 µM) | 75.2
Cn1sc(=O)n(Cc2ccccc2)c1=O + O=C(O)c1ccc2c(c1)nc(Nc1cccc(Cl)c1)c1ccncc12 [CX4945] (partner dose 2 µM) | 63.9
Cn1sc(=O)n(Cc2ccccc2)c1=O + COc1ccc(Cl)c(Nc2nc3ccccc3nc2NS(=O)(=O)c2cccc(NC(=O)C(C)(C)N)c2)c1 [XL147] (partner dose 4 µM) | 82.3
CCCCCCCCCCCCCCCCCCOP(=O)([O-])OC1CC[N+](C)(C)CC1 [Perifosine] + Cn1nnc2c(C(N)=O)ncn2c1=O [temozolomide] (partner dose 10 µM) | 126
CCCCCCCCCCCCCCCCCCOP(=O)([O-])OC1CC[N+](C)(C)CC1 [Perifosine] + Clc1ccc(Nc2nnc(Cc3ccncc3)c3ccccc23)cc1 [vatalanib] (partner dose 10 µM) | 79.2
C[C@@H](N)c1ccc(C(=O)Nc2ccnc3[nH]ccc23)cc1 + COc1cc(Nc2ncc(F)c(Nc3ccc4c(n3)NC(=O)C(C)(C)O4)n2)cc(OC)c1OC [Tamatinib] (partner dose 2 µM) | 54
C[C@@H](N)c1ccc(C(=O)Nc2ccnc3[nH]ccc23)cc1 + COc1cc2c(Oc3ccc4[nH]c(C)cc4c3F)ncnc2cc1OCCCN1CCCC1 [cediranib] (partner dose 2 µM) | 81.6
C[C@@H](N)c1ccc(C(=O)Nc2ccnc3[nH]ccc23)cc1 + CCCCCCCCc1ccc(CCC(N)(CO)CO)cc1 [fingolimod] (partner dose 10 µM) | 0.976

SMILES | cell count [%]
Cn1sc(=O)n(Cc2ccccc2)c1=O + C[C@]1(O)C[C@@H](c2nc(-c3ccc4ccc(-c5ccccc5)nc4c3)c3c(N)nccn32)C1 [OSI906] (partner dose 2 µM) | 95.1
Cn1sc(=O)n(Cc2ccccc2)c1=O + NC(=O)c1ccc(N(C(N)=O)c2c(F)cccc2F)nc1-c1ccc(F)cc1F [VX702] (partner dose 2 µM) | 89.3
C[C@@H](N)c1ccc(C(=O)Nc2ccnc3[nH]ccc23)cc1 + Cn1cnc2c(F)c(Nc3ccc(Br)cc3Cl)c(C(=O)NOCCO)cc21 [selumetinib] (partner dose 0.075 µM) | 72.6
CCCCCCCCCCCCCCCCCCOP(=O)([O-])OC1CC[N+](C)(C)CC1 [Perifosine] + CC(C)C[C@H](NC(=O)[C@H](Cc1ccccc1)NC(=O)c1cnccn1)B(O)O [Bortezomib] (partner dose 0.005 µM) | 1.19
C[C@@H](N)c1ccc(C(=O)Nc2ccnc3[nH]ccc23)cc1 + CNC(=O)c1cc(Oc2ccc(NC(=O)Nc3ccc(Cl)c(C(F)(F)F)c3)cc2)ccn1 [sorafenib] (partner dose 2 µM) | 74.3
CCCCCCCCCCCCCCCCCCOP(=O)([O-])OC1CC[N+](C)(C)CC1 [Perifosine] + C[C@]1(O)C[C@@H](c2nc(-c3ccc4ccc(-c5ccccc5)nc4c3)c3c(N)nccn32)C1 [OSI906] (partner dose 2 µM) | 74.3
CCCCCCCCCCCCCCCCCCOP(=O)([O-])OC1CC[N+](C)(C)CC1 [Perifosine] + NC1(c2ccc(-c3nc4ccn5c(=O)[nH]nc5c4cc3-c3ccccc3)cc2)CCC1 [MK2206] (partner dose 2 µM) | 90.5
CCCCCCCCCCCCCCCCCCOP(=O)([O-])OC1CC[N+](C)(C)CC1 [Perifosine] + O=c1[nH]nc(Sc2ncc([N+](=O)[O-])s2)n1-c1ccc2c(c1)OCCO2 [BI78D3] (partner dose 1 µM) | 98.7
C[C@@H](N)c1ccc(C(=O)Nc2ccnc3[nH]ccc23)cc1 + NC1(c2ccc(-c3nc4ccn5c(=O)[nH]nc5c4cc3-c3ccccc3)cc2)CCC1 [MK2206] (partner dose 2 µM) | 76.6
CCCCCCCCCCCCCCCCCCOP(=O)([O-])OC1CC[N+](C)(C)CC1 [Perifosine] + Cc1cn(-c2cc(NC(=O)c3ccc(C)c(Nc4nccc(-c5cccnc5)n4)c3)cc(C(F)(F)F)c2)cn1 [nilotinib] (partner dose 1 µM) | 88.2
Cn1sc(=O)n(Cc2ccccc2)c1=O + CN(c1ncccc1CNc1nc(Nc2ccc3c(c2)CC(=O)N3)ncc1C(F)(F)F)S(C)(=O)=O [PF562271] (partner dose 0.4 µM) | 95.3
C[C@@H](N)c1ccc(C(=O)Nc2ccnc3[nH]ccc23)cc1 + C=C(c1ccc(C(=O)O)cc1)c1cc2c(cc1C)C(C)(C)CCC2(C)C [Bexarotene] (partner dose 10 µM) | 88.9
CCCCCCCCCCCCCCCCCCOP(=O)([O-])OC1CC[N+](C)(C)CC1 [Perifosine] + Cc1cc(Nc2cc(N3CCN(C)CC3)nc(/C=C/c3ccccc3)n2)n[nH]1 [ENMD2076] (partner dose 0.2 µM) | 107
C[C@@H](N)c1ccc(C(=O)Nc2ccnc3[nH]ccc23)cc1 + CN(NC(=O)CC(=O)NN(C)C(=S)c1ccccc1)C(=S)c1ccccc1 [STA4783] (partner dose 0.03 µM) | 26.3
Cn1sc(=O)n(Cc2ccccc2)c1=O + COc1cc(Nc2ncc(F)c(Nc3ccc4c(n3)NC(=O)C(C)(C)O4)n2)cc(OC)c1OC [Tamatinib] (partner dose 2 µM) | 72.6
CCCCCCCCCCCCCCCCCCOP(=O)([O-])OC1CC[N+](C)(C)CC1 [Perifosine] + OCc1c[nH]c2ccccc12 [Indole-3-carbinol] (partner dose 4 µM) | 87.4
C[C@@H](N)c1ccc(C(=O)Nc2ccnc3[nH]ccc23)cc1 + CS(=O)(=O)CCNCc1ccc(-c2ccc3ncnc(Nc4ccc(OCc5cccc(F)c5)c(Cl)c4)c3c2)o1 [lapatinib] (partner dose 4 µM) | 67.5
Cn1sc(=O)n(Cc2ccccc2)c1=O + O=C(O)c1ccc(-c2c[nH]c3ncc(-c4ccccc4)cc23)cc1C1CCCC1 [GSK650394] (partner dose 0.8 µM) | 55.9
Cn1sc(=O)n(Cc2ccccc2)c1=O + Cn1nnc2c(C(N)=O)ncn2c1=O [temozolomide] (partner dose 10 µM) | 95.2
